Hit rate of the full screen: of about 330,000 compounds, about 300 (0.091%) were called active. This list was built around the results that the source calls inconclusive (neither active nor inactive); the mix of calls is not that of the screen. The call rests on the fitted dose curve; in most records, active means well fitted inhibition curve with a large enough effect; inconclusive means small, poorly fitted or top-dose-only effect, or effect the other way, or another doubt; inactive means no such curve, though single readings can be large or run the other way. No potency is given beside an inconclusive call; the fits are too rough.
Target: Lysosomal acid glucosylceramidase (Homo sapiens) (UniProt P04062)
Assay: qHTS Assay for Inhibitors and Activators of N370S glucocerebrosidase as a Potential Chaperone Treatment of Gaucher Disease;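 on activity change, negative = inhibition: 0% = full enzyme activity and -100% = no enzyme basal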
Details: N370S GC spleen homogenate, 4MU-glucoside fluorescence; activity change, negative = inhibition: at 59.4 µM (top of the series) unless noted
Potency means the concentration at half of the fitted maximal effect.

Q: `C/C=C/c1ccc(OCCCCN2CC(C)CC(C)C2)c(OC)c1` (stereo unspecified) was tested. Which Potency did it give?
A: Its Potency is inconclusive [inhibitor, single point].

Q: `COc1ccc(OCCNC(=O)c2cccc(Oc3ccc(C(F)(F)F)cc3[N+](=O)[O-])c2)cc1` was tested. Which Potency did it give?
A: Its Potency is inconclusive [activator, single point].

Q: For `O=C(Nc1ccc(Cl)c(Cl)c1)OCc1cnc(Cl)s1`, which Potency is on record?
A: Its Potency is inconclusive [inhibitor, partial curve].

Q: How did the “activity change, negative = inhibition” value turn out when `COc1c(C(=O)NNC(=O)c2ccccc2Cl)csc1Br` was run?
A: Its value is inactive: 1.9%.

Q: For `CCn1c(SCc2cccc(OC)c2)nc2ccccc2c1=O`, which Potency is on record?
A: Its Potency is inconclusive [activator, single point].

Q: `C#Cc1cccc(NC(=O)c2ccc3c(c2)C(=O)N(Cc2cccnc2)C3=O)c1` was tested. Which Potency did it give?
A: Its Potency is inconclusive [inhibitor, single point].

Q: How did the Potency turn out when `OC(COC(c1ccccc1)c1ccccc1)CN1CCN(c2cccc(Cl)c2)CC1` (stereo unspecified) was run?
A: Its Potency is inconclusive [inhibitor, partial curve].

Q: With `CC(C)(C)c1nnc2sc(SCC(=O)c3ccc4c(c3)OCCO4)nn2c1=O` as the compound, how does the Potency read?
A: The Potency was inconclusive [activator, partial curve].

Q: With `CN1c2ccc(Cl)cc2C(=O)NC1C1CC=CCC1` (stereo unspecified) as the compound, how does the Potency read?
A: The Potency was inconclusive [activator, single point].

Q: How did the “activity change, negative = inhibition” value turn out when `O=C(CSc1nnc(SCc2ccccc2)s1)N/N=C/C=C/c1ccccc1[N+](=O)[O-]` was run?
A: Its value is inactive: 7.16%.

Q: With `COc1ccc(S(=O)(=O)CCC(=O)NCc2ccc(C)o2)cc1` as the compound, how does the “activity change, negative = inhibition” value read?
A: The value was inactive: -24.6%.

Q: `CN(C)c1ccc(C(=O)Nc2nc3c(s2)CCCC3)cc1` was tested. Which Potency did it give?
A: The Potency was inconclusive [activator, full curve].

Q: Which Potency does the source give for `CCNc1ncc2nc(CCc3ccccc3)c(=O)n(CCC#N)c2n1` here?
A: The Potency was inconclusive [activator, partial curve].

Q: `Cc1ccc(Nc2cc(C)nc(-c3ccccc3O)n2)cc1` was tested. Which Potency did it give?
A: The Potency was inconclusive [inhibitor, single point].

Q: `O=C(CC(=O)Nc1ccc(Cl)c(Cl)c1)N/N=C/c1ccc(O)cc1` was tested. Which Potency did it give?
A: The Potency was inconclusive [inhibitor, partial curve].

Q: For `Cc1[nH]c2ccccc2c1/C=N/NC(=S)NCc1ccccc1`, which Potency is on record?
A: Its Potency is inconclusive [activator, single point].

Q: Which Potency does the source give for `Cn1c(SCc2nc(-c3ccc(Cl)cc3)no2)nnc1-c1ccccc1` here?
A: Its Potency is inconclusive [activator, partial curve, poor fit].

Q: How did the “activity change, negative = inhibition” value turn out when `CCOCCCNC(=O)c1ccc2c(c1)ncn2C1CCCC1` was run?
A: The value was inactive: -13.6%.

Q: Which Potency does the source give for `COc1ccc(C(=O)Nc2ccc3nc(N4CCCCC4)cc(C)c3c2)cc1OC` here?
A: The Potency was inconclusive [inhibitor, partial curve].

Q: Which “activity change, negative = inhibition” value does the source give for `O=[N+]([O-])c1cc(-c2nc(-c3ccncc3)no2)ccc1Cl` here?
A: Its value is inactive: 9.07%.

Q: With `COc1ccc([N+](=O)[O-])cc1N(CC(O)CN1CCCCC1)S(=O)(=O)c1ccccc1` (stereo unspecified) as the compound, how does the Potency read?
A: The Potency was inconclusive [inhibitor, single point].

Q: With `COc1ccc2nc3cc(Cl)ccc3c(Nc3cc(C(C)C)c(O)cc3C)c2c1` as the compound, how does the Potency read?
A: The Potency was inconclusive [inhibitor, partial curve].

Q: For `C#CCOCCOCCOCCNc1nc(N2CCOCC2)nc(N2CCN(C(=O)CCCCCCCCCCNC(=O)[C@H]([C@@H](C)CC)n3cc(CCCCN=C(N)N)nn3)CC2)n1`, which Potency is on record?
A: Its Potency is inconclusive [inhibitor, full curve].

Q: How did the Potency turn out when `CC(C)Cc1nnc(NC(=O)CCC(=O)Nc2ccc(Cl)cc2)s1` was run?
A: The Potency was inconclusive [activator, single point].

Q: How did the “activity change, negative = inhibition” value turn out when `CC(=O)c1ccc(NC(=S)NCCc2cccc(Cl)c2)cc1` was run?
A: Its value is inactive: 3.44%.

Q: How did the Potency turn out when `CN(C)CCCN(C(=O)c1ccc(S(=O)(=O)N2CCc3ccccc32)cc1)c1nc2ccc(Cl)cc2s1` was run?
A: Its Potency is inconclusive [inhibitor, partial curve].

Q: With `COc1ccc(C(=O)C(OC(=O)c2ccccc2Cl)c2ccccc2)cc1` (stereo unspecified) as the compound, how does the Potency read?
A: The Potency was inconclusive [activator, partial curve].

Q: For `CCNc1ncc2nc(-c3cccc(C#N)c3)c(=O)n(C)c2n1`, which Potency is on record?
A: Its Potency is inconclusive [activator, partial curve].

Q: `Cc1ccc2nc(-c3ccc(-c4cccc(Cl)c4)cc3)c(NCc3ccccc3)n2c1` was tested. Which Potency did it give?
A: The Potency was inconclusive [inhibitor, full curve].

Q: With `CN(C)c1ccc(-c2nc(Nc3ccncc3)c3ccccc3n2)cc1` as the compound, how does the Potency read?
A: The Potency was inconclusive [inhibitor, single point].

Q: For `Nc1cc([N+](=O)[O-])ccc1Nc1ccc(O)cc1`, which Potency is on record?
A: Its Potency is inconclusive [inhibitor, single point].

Q: `O=C(NCc1ccccn1)c1cc(-c2ccc(Cl)cc2)oc1C(F)(F)F` was tested. Which Potency did it give?
A: Its Potency is inconclusive [activator, partial curve].

Q: For `O=C1/C(=C\c2ccco2)SC(=S)N1c1ccc(O)cc1`, which “activity change, negative = inhibition” value is on record?
A: Its value is inactive: -11.3%.

Q: With `CC(C)(C)c1cc(NCc2ccccn2)n2ncc(-c3ccccc3)c2n1` as the compound, how does the Potency read?
A: Its Potency is inconclusive [activator, partial curve].

Q: For `c1ccc(-c2nc3ccccn3c2NCc2ccc3c(c2)OCO3)cc1`, which Potency is on record?
A: Its Potency is inconclusive [inhibitor, partial curve].

Q: `O=S(=O)(c1cccs1)N1CN(C2CCCCC2)c2nc3ccccc3nc21` was tested. Which Potency did it give?
A: The Potency was inconclusive [activator, partial curve, poor fit].

Q: For `COc1ccc(-n2cc(-c3ccccc3)c3c(NCCOCCO)ncnc32)cc1`, which Potency is on record?
A: The Potency was inconclusive [inhibitor, single point].

Q: For `O=C(/C=C/c1ccc(-c2ccc(F)cc2)o1)N1CCCC1`, which “activity change, negative = inhibition” value is on record?
A: Its value is inactive: 1.82%.

Q: For `O=P(CCCCCCCCCP(=O)(c1ccccc1)c1ccccc1)(c1ccccc1)c1ccccc1`, which Potency is on record?
A: The Potency was inconclusive [activator, full curve].

Q: With `COCCCNC(=O)CN1C(=O)COc2ccc(S(=O)(=O)N3CC(C)CC(C)C3)cc21` (stereo unspecified) as the compound, how does the Potency read?
A: Its Potency is inconclusive [inhibitor, partial curve, poor fit].

Q: `Cc1ccc(S(=O)(=O)N2CN(Cc3ccco3)c3nc4ccccc4nc32)cc1` was tested. Which “activity change, negative = inhibition” value did it give?
A: Its value is inactive: -2.25%.

Reference: PubChem BioAssay AID2101 (National Center for Advancing Translational Sciences (NCATS), 2009)
